# Several values for one entry are separate records, joined by “and”; a condition that tells them apart may be missing. Equal entries are not always repeated. ± gives the standard deviation of the averaged measurements. Whole data set: some 2,900 compounds, median “NF-kB SEAP reporter activity, fold change vs agonist alone” near 0.99, cut for the highest 2% near 2.6. Some of the results follow.
# Columns and labels:
# [1] = test system: RAW-Dual; assay: NF-kB SEAP reporter activity, fold change vs agonist alone; cytotoxicity flag (confluency mask): not cytotoxic; higher = enhanced NF-kB activity
# Procedure, shortened: (§1)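 RAW-Dual macrophages were seeded in DMEM at 50,000 cells/well in 384-well plates, given 50 nL of library stock by pin tool, and given a PRR agonist 1 h later. Plates were held at 37 °C, 5% CO2 for 20 hours, after which supernatant was read for IRF by QuantiLuc luminescence and for NF-κB by QuantiBlue absorbance at 620 nm. Reporter activity is expressed as fold change over wells that received agonist alone. A well was called cytotoxic when IncuCyte confluency fell below 70% of agonist controls in both mask sets.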
# [2] = test system: RAW-Dual; assay: NF-kB SEAP reporter activity, fold change vs agonist alone; higher = enhanced NF-kB activity; conditions: cytotoxicity flag (confluency mask): not cytotoxic
# Procedure, shortened: as §1
# [3] = agonist: ODN 1826 (TLR9) 0.5 ug/mL
# [4] = agonist: Pam2CSK4 (TLR2/6) 0.1 ug/mL
# [5] = agonist: Pam3CSK4 (TLR2/1) 0.1 ug/mL
# [6] = library stock concentration (final ~1000-fold dilution): 10 mM, agonist: Imiquimod (TLR7) […]
# [7] = library stock concentration (final ~1000-fold dilution): 10 mM, agonist: MPLA (TLR4) […]
structure (smiles),measurement,setting,value
COc1ccc(C2OCC3C(c4ccc(OC)c(OC)c4)OCC23)cc1OC (stereo not given) (library stock concentration (final ~1000-fold dilution): 10 mM),NF-kB SEAP reporter activity,[1]; agonist: LPS (TLR4) 0.1 ug/mL,1.39
same,NF-kB SEAP reporter activity,[1]; [3],1.18
same,NF-kB SEAP reporter activity,[1]; [4],1.22
same,NF-kB SEAP reporter activity,[1]; [5],1.42
COc1ccc(C2OCC3C(c4ccc(OC)c(OC)c4)OCC23)cc1OC (stereo not given),NF-kB SEAP reporter activity,[2]; [6],0.74
same,NF-kB SEAP reporter activity,[2]; [7],1.19
Cc1c(C)c2c(c(C)c1O)CCC(C)(C(=O)O)O2 (stereo not given) (library stock concentration (final ~1000-fold dilution): 10 mM),NF-kB SEAP reporter activity,[1]; agonist: LPS (TLR4) 0.1 ug/mL,1.06 and 1.28
same,NF-kB SEAP reporter activity,[1]; [3],0.942 and 1.08
same,NF-kB SEAP reporter activity,[1]; [4],0.884 and 1.06
same,NF-kB SEAP reporter activity,[1]; [5],0.71 and 1.14
N.S=C(S)N1CCCC1 (library stock concentration (final ~1000-fold dilution): 10 mM),NF-kB SEAP reporter activity,[1]; agonist: LPS (TLR4) 0.1 ug/mL,1.55 ± 0.34
same,NF-kB SEAP reporter activity,[1]; [3],1.04 ± 0.043
same,NF-kB SEAP reporter activity,[1]; [4],0.967 ± 0.17
same,NF-kB SEAP reporter activity,[1]; [5],0.965 ± 0.042
N.S=C(S)N1CCCC1,NF-kB SEAP reporter activity,[2]; [6],1.15 ± 0.22
same,NF-kB SEAP reporter activity,[2]; [7],1.5 ± 0.35
CC(=O)OCC(=O)NCCCOc1cccc(CN2CCCCC2)c1.Cl (library stock concentration (final ~1000-fold dilution): 10 mM),NF-kB SEAP reporter activity,[1]; agonist: LPS (TLR4) 0.1 ug/mL,1.01
same,NF-kB SEAP reporter activity,[1]; [3],0.971
same,NF-kB SEAP reporter activity,[1]; [4],0.943
same,NF-kB SEAP reporter activity,[1]; [5],1.08
CC(=O)OCC(=O)NCCCOc1cccc(CN2CCCCC2)c1.Cl,NF-kB SEAP reporter activity,[2]; [6],0.935
same,NF-kB SEAP reporter activity,[2]; [7],0.985
CCOC1OC(=O)CC1NC(=O)C1CCCN1C(=O)C(NC(=O)c1ccc(N)c(Cl)c1)C(C)(C)C (stereo not given) (library stock concentration (final ~1000-fold dilution): 10 mM),NF-kB SEAP reporter activity,[1]; agonist: LPS (TLR4) 0.1 ug/mL,0.973
same,NF-kB SEAP reporter activity,[1]; [3],1
same,NF-kB SEAP reporter activity,[1]; [4],1
same,NF-kB SEAP reporter activity,[1]; [5],0.976
CCOC1OC(=O)CC1NC(=O)C1CCCN1C(=O)C(NC(=O)c1ccc(N)c(Cl)c1)C(C)(C)C (stereo not given),NF-kB SEAP reporter activity,[2]; [6],0.911
same,NF-kB SEAP reporter activity,[2]; [7],0.995
CN1CCN(c2ccc(Nc3ncc4cc(C#N)c(=O)n(C5CCCC5)c4n3)cc2)CC1 (library stock concentration (final ~1000-fold dilution): 10 mM),NF-kB SEAP reporter activity,[1]; agonist: LPS (TLR4) 0.1 ug/mL,1.35
same,NF-kB SEAP reporter activity,[1]; [3],0.9
same,NF-kB SEAP reporter activity,[1]; [4],0.404
same,NF-kB SEAP reporter activity,[1]; [5],0.601
CN1CCN(c2ccc(Nc3ncc4cc(C#N)c(=O)n(C5CCCC5)c4n3)cc2)CC1,NF-kB SEAP reporter activity,[2]; [6],1.02
same,NF-kB SEAP reporter activity,[2]; [7],1.33
CCCC1CC(C(=O)NC(C(C)Cl)C2OC(SC)C(O)C(O)C2O)N(C)C1.Cl.O (stereo not given),NF-kB SEAP reporter activity,[2]; [7],1.07
CCCC1CC(C(=O)NC(C(C)Cl)C2OC(SC)C(O)C(O)C2O)N(C)C1.Cl.O (stereo not given) (library stock concentration (final ~1000-fold dilution): 10 mM),NF-kB SEAP reporter activity,[1]; agonist: LPS (TLR4) 0.1 ug/mL,1.29
same,NF-kB SEAP reporter activity,[1]; [3],0.918
same,NF-kB SEAP reporter activity,[1]; [4],0.831
same,NF-kB SEAP reporter activity,[1]; [5],0.973
O=c1cc(-c2ccccc2)oc2cc(O)c(O)c(O)c12 (library stock concentration (final ~1000-fold dilution): 10 mM),NF-kB SEAP reporter activity,[1]; agonist: LPS (TLR4) 0.1 ug/mL,0.932
same,NF-kB SEAP reporter activity,[1]; [3],0.703
same,NF-kB SEAP reporter activity,[1]; [4],0.878
same,NF-kB SEAP reporter activity,[1]; [5],0.544
O=c1cc(-c2ccccc2)oc2cc(O)c(O)c(O)c12,NF-kB SEAP reporter activity,[2]; [6],0.894
same,NF-kB SEAP reporter activity,[2]; [7],0.999
CCN(CC)C(=O)C(c1ccccc1)N1CCN(c2ccc(NC(=O)c3ccccc3-c3cccnc3)cc2F)CC1 (stereo not given) (library stock concentration (final ~1000-fold dilution): 10 mM),NF-kB SEAP reporter activity,[1]; agonist: LPS (TLR4) 0.1 ug/mL,1.49
same,NF-kB SEAP reporter activity,[1]; [3],0.989
same,NF-kB SEAP reporter activity,[1]; [4],0.932
same,NF-kB SEAP reporter activity,[1]; [5],0.897
CCN(CC)C(=O)C(c1ccccc1)N1CCN(c2ccc(NC(=O)c3ccccc3-c3cccnc3)cc2F)CC1 (stereo not given),NF-kB SEAP reporter activity,[2]; [6],1.01
same,NF-kB SEAP reporter activity,[2]; [7],1.03
O=c1[nH]c(=O)c2nc3ccccc3nc2[nH]1 (library stock concentration (final ~1000-fold dilution): 2 mM),NF-kB SEAP reporter activity,[1]; agonist: LPS (TLR4) 0.1 ug/mL,1.13
same,NF-kB SEAP reporter activity,[1]; [3],0.987
same,NF-kB SEAP reporter activity,[1]; [4],1.03
same,NF-kB SEAP reporter activity,[1]; [5],1.05
O=c1[nH]c(=O)c2nc3ccccc3nc2[nH]1,NF-kB SEAP reporter activity,"[2]; library stock concentration (final ~1000-fold dilution): 2 mM, agonist: MPLA (TLR4) […]",0.967
COC(=O)C1=C(C)NC(C)=C(C(=O)OC(C)(C)CN(C)CCC(c2ccccc2)c2ccccc2)C1c1cccc([N+](=O)[O-])c1.Cl (stereo not given) (library stock concentration (final ~1000-fold dilution): 10 mM),NF-kB SEAP reporter activity,[1]; agonist: LPS (TLR4) 0.1 ug/mL,1.21
same,NF-kB SEAP reporter activity,[1]; [3],0.335
same,NF-kB SEAP reporter activity,[1]; [4],0.449
same,NF-kB SEAP reporter activity,[1]; [5],0.363
COC(=O)C1=C(C)NC(C)=C(C(=O)OC(C)(C)CN(C)CCC(c2ccccc2)c2ccccc2)C1c1cccc([N+](=O)[O-])c1.Cl (stereo not given),NF-kB SEAP reporter activity,[2]; [6],0.526
same,NF-kB SEAP reporter activity,[2]; [7],1.35
CC(=O)N[C@@H](CS)C(=O)O (library stock concentration (final ~1000-fold dilution): 10 mM),NF-kB SEAP reporter activity,[1]; agonist: LPS (TLR4) 0.1 ug/mL,1.24
same,NF-kB SEAP reporter activity,[1]; [3],1.1
same,NF-kB SEAP reporter activity,[1]; [4],1.08
same,NF-kB SEAP reporter activity,[1]; [5],1.09
CC(=O)N[C@@H](CS)C(=O)O,NF-kB SEAP reporter activity,[2]; [6],1
same,NF-kB SEAP reporter activity,[2]; [7],1
CC1COCCN1c1cc(C2(S(C)(=N)=O)CC2)nc(-c2ccnc3[nH]ccc23)n1 (stereo not given) (library stock concentration (final ~1000-fold dilution): 10 mM),NF-kB SEAP reporter activity,[1]; agonist: LPS (TLR4) 0.1 ug/mL,2.49
same,NF-kB SEAP reporter activity,[1]; [3],0.863
same,NF-kB SEAP reporter activity,[1]; [4],0.82
same,NF-kB SEAP reporter activity,[1]; [5],0.97
CC1COCCN1c1cc(C2(S(C)(=N)=O)CC2)nc(-c2ccnc3[nH]ccc23)n1 (stereo not given),NF-kB SEAP reporter activity,[2]; [6],1.19
same,NF-kB SEAP reporter activity,[2]; [7],1.34
NC(=O)OCC(COC(N)=O)c1ccccc1,NF-kB SEAP reporter activity,[2]; [6],0.916
same,NF-kB SEAP reporter activity,[2]; [7],0.976
NC(=O)OCC(COC(N)=O)c1ccccc1 (library stock concentration (final ~1000-fold dilution): 10 mM),NF-kB SEAP reporter activity,[1]; agonist: LPS (TLR4) 0.1 ug/mL,0.921
same,NF-kB SEAP reporter activity,[1]; [3],1.04
same,NF-kB SEAP reporter activity,[1]; [4],1.05
same,NF-kB SEAP reporter activity,[1]; [5],1.05
